Assay results taken from the RNAGym collection of RNA variant scans (doi:10.7554/elife.90254).
The source gives no read counts; variants with many changes may rest on few reads.

B1: OR4K15 (parent)
chain: GUUAACGGUCAUAGGCCAUGGAAACUAGGAGCACCAUUUCGCUGCCAGUGAAGAAAUGAACAAAGAAAAUCUGGGCCAGGCAGGCAUCAAAAGAAAUAGUCUUGCGCUCAACCAGAAAGUCUGUAAUCAUUUUAAGGGUA

Variants of: B1
Test: self-cleavage, relative activity (ratio to wild type); higher = more cleavage; in vitro, sequencing; the parent is a self-cleaving ribozyme

Row | Variant | self-cleavage
1 | A47U A86G A110G U122C | 0.04
2 | A13U U37C U102C | 1.78
3 | U2A A11G A30U A56G A117G A135U | 1.18
4 | A18G A23G A68G U87C U133C | 1.08
5 | A13G U43C A78U | 0.59
6 | A66G U108A U124G | 0.01
7 | U3C A22G A135G | 0.39
8 | A27G A33U A117G | 2.35
9 | A5G A11C A68G U108C U120G | 0.04
10 | U2A A54G A111G A118U | 0.02
11 | A68G U72C G104A | 0.04
12 | A67G A89U U103C | 0.63
13 | A13G U38C A52G A92G | 1.02
14 | U2A A67G U131C | 1.11
15 | U3A U9C U19C U122C | 0.36
16 | U9C A13G A36U A51U U102A A110U | 1.19
17 | A23G A27G A82G A95G | 0.85
18 | U9C A60G A78G | 0.22
19 | A56G A78U A86G A94G A126U | 0.06
20 | A5G U49C A125C | 0.26
21 | A5U U37C A56G | 1.65
22 | A23G A47G A52G | 0.75
23 | A47G U122A U131C | 0.52
24 | A33G A52G C81U A135U | 0.1

Row | Variant | self-cleavage
25 | A62G A91U A125G | 0.4
26 | A60G U87C A91G U108A U124G | 0.01
27 | U38A G48A A126U U127C | 0.66
28 | A18G A27G A96U A118G | 0.44
29 | A23U C34G A54G U57C A111G A126G | 0
30 | A11G A22U U139C | 0.51
31 | U87C A110G A135U | 0.03
32 | A54G A62U A126G | 0.76
33 | U39A A54G A90G | 1.27
34 | U49A A56G A78G A111G | 0.03
35 | A24G A54G A67G | 1.07
36 | A24C U57C A64G | 1.7
37 | U26C A62U U130C | 1.73
38 | A55G U97A G138C | 0.72
39 | A4G A78U C107A | 0.04
40 | U2C U108C A125G | 0.01
41 | A47G A64G U122C U130C | 1.04
42 | U2C U38C A52U C61U U131C | 0.91
43 | A68G A94G U100C | 1.77
44 | U49C A64G A69U U72A A118G A126G | 0.33
45 | A24G A54G A94G | 2.15
46 | U9C A11U U122C | 0.96
47 | A23G A96G U102C A114G | 0.67
48 | A13G U19C A56G | 0.17

Row | Variant | self-cleavage
49 | A30G G84U A96G U132C | 0.52
50 | U38C A89G U103C A140G | 1.31
51 | A22G A60G A94U U132C | 1.1
52 | A36G A89G A116G | 1.26
53 | A23G U49C A51G U57C U70C | 0.7
54 | A24U A56G A78U U133C | 0.55
55 | A52G U70C A126G | 0.85
56 | A22C G106A U108C | 0.02
57 | U9A A51U U102C | 1.51
58 | A47U A78G U131C | 0.16
59 | A23G A33U A52G | 1.05
60 | U19C A22G U43C A82U U103C U127C | 0.02
61 | A18G A59U G79U | 0.06
62 | A63G A91G G137U | 1.41
63 | A22G A27G C40U U43A | 1.02
64 | A13U A56G A91G U133C | 0.61
65 | U9C A13G A78U | 0.39
66 | A13U A22G A64G U72A | 0.11
67 | U49C A67G A69G A96G U103C G137U | 0.13
68 | A68G A125G U139C | 0.72
69 | A22G A129G U130C U139A | 0.57
70 | A47C A60U A64U | 1.66
71 | A82G A89G A96G U132C | 0
72 | A23G G44A A126G | 0.45

Row | Variant | self-cleavage
73 | U26C A117G U131C | 0.28
74 | U72C A110C A114U | 0
75 | A62G G73A A82G | 0.29
76 | A4G A23G U49C | 0.22
77 | A30U A82U A92G U102C A117G | 0.26
78 | A67U A92G G119A | 1.72
79 | A5G C46U U72C | 0.29
80 | C32A A52U A67G U100C A114G | 1.77
81 | A23U U37C U39A | 1.4
82 | A56U A66G U70G C107A | 0
83 | A13G G15C U43A A68G A82U | 0.22
84 | A82G U124A U132C | 0.13
85 | A24G A67G A96G A116G | 1.04
86 | U9C U39C A56C | 1.59
87 | U9A U38C G48A A52G A118G A140G | 1.44
88 | G41A U87A A94G U103C U139C | 1.09
89 | A11U U72C U120A A125G | 0.06
90 | A11G A23G U37C | 0.61
91 | A86C G106A U133C | 0.01
92 | U2C A22G A36G A92G U108C C109U | 0.02
93 | U38C A68G U72C | 0.44
94 | U38C A90G A94U | 1.49
95 | A66G U87C A95G C107G U122C | 0
96 | A5G U70C A96G A111G U132C | 0.03

Row | Variant | self-cleavage
97 | A5G G21A A60G A89G | 1.28
98 | U12C A66G A95G U100G | 1.17
99 | U39A A52G A66U U130A U131C | 1.26
100 | U72A A117U U131C | 0.04
101 | A22G A69U U100C U108C A125U | 0.01
102 | U39A A82U A117U | 0.24
103 | G1A U43C U49C A51G U124G | 1.16
104 | U43C U72A U127C | 0.16
105 | A4G U19C U26C | 0.68
106 | A36G U38C A66G U124A | 1.31
107 | A47U A89U A125G | 0.45
108 | U12C U49C A54G A63G U131C | 0.81
109 | U26C A30G A55G G74A A94G A96G U108A | 0.04
110 | A64G U108C U122C | 0.01
111 | U9C U26G A60U U100C | 0.98
112 | A60G A86U U120G | 1.59
113 | A24G A27U U87A | 0.59
114 | A22U A52G A56G | 1.57
115 | A22G A30U U139C | 0.58
116 | U2C U12C A18G A114U | 0.08
117 | A23G U39C A52G A66G A78U A98G U130C | 0.25
118 | U19C G29U A47U | 0.88
119 | U3A G58A A96G U120C | 0.44
120 | U9C A55G A82G U103C A111C | 0

Row | Variant | self-cleavage
121 | A51G A89U A94U A96G | 1.32
122 | G53U A64C A86G A92G | 1.28
123 | G1U U2G A18G U26A G31C C35A | 1.01
124 | U57C A92G U102C | 0.99
125 | U19C A66G A110U | 0.34
126 | A82G A117G U122C | 0.3
127 | A24G A86U A92G | 1.62
128 | U19C A47G G74U | 0.2
129 | U3C U9G A18U A23G | 1.08
130 | U37C G41U A63G A95U | 2.02
131 | A66U U102C U122A | 1.87
132 | U72C U87A A110G | 0.03
133 | A24C A52G A78G | 0.31
134 | A68U G80U A91G U97C | 0.06
135 | U43C C109U U130C U132C | 0.26
136 | A22G A82U A110G | 0.02
137 | G41A A60G A62G | 0.63
138 | U43C G74A U108C | 0.01
139 | U9C C25U A82U U132A | 0.27
140 | A98U A118G U124C | 2.59
141 | U37C U87C A95U A129G U131C | 0.56
142 | A30U A67G A90G | 1.17
143 | A13G A18G A30G | 0.91
144 | U2A A62G C128A | 0.83

Row | Variant | self-cleavage
145 | A5G A60G U120C | 0.47
146 | U38C C107U A140G | 0.03
147 | U12C A30G U103C A111G | 0
148 | G14A A52G A55G A66G | 0.61
149 | G7A A33U A94G A129G A134G | 1.21
150 | A23G A27U A59G U122C | 1.83
151 | A59G A118G U127C | 0.49
152 | A18G A27G U49C U97G | 1.22
153 | U2C A56G G93U | 1.36
154 | U26C A56G G79U U97C | 0.08
155 | U2C A27G U132C | 1.32
156 | G21A A51G C105U A110U | 0.3
157 | A59U A62G A95G | 1.78
158 | U3A U9C A55G | 1.33
159 | U12C U43C A54G G80A U132C | 0.21
160 | C85U A89U U131A | 0.64
161 | A69G A94U U127C | 1.61
162 | A27G A52G U100C | 1.9
163 | A47G A67G U122A | 1.53
164 | A33G A36G U38A | 1.36
165 | U43C U57C U72C U100A G115U | 0.01
166 | A24G A59U U97A A110U | 0.7
167 | U26G A52G A94G U100C A118G | 1.2
